These are yes or no findings as the source states them, for the method shown. Binding seen in cells or lysates may run through a third protein. Some entries that bind do so weakly or less than the wild type. For some assays here: Where a sequence is shown, tags or fusion partners need not be part of it.

For test [1], the target named is T1, GST-K15P cytoplasmic domain (aa 347-489) (Kaposi's sarcoma herpesvirus (KSHV, HHV-8)) (UniProt Q9QR69).
T1 sequence: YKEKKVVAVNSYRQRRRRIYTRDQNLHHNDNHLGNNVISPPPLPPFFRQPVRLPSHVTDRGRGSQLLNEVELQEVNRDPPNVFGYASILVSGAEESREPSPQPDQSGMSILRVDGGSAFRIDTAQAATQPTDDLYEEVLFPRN
In words: pull-down; competition: GST-K15P cytoplasmic domain on beads pulls down endogenous PLCγ1, GIT1 and cdc42 from lysates of HEK293T transfected with 0.5, 1 or 2 μg of PLCγ2 cSH2 plasmid; western blot; only the target purified. On the technique in general: In western blotting, separated proteins are transferred to a membrane and probed.

The target in test [2] is T2, PLCγ1, endogenous in HuAR2T endothelial cells (human (endogenous in HuAR2T)) (UniProt P19174).
T2 sequence: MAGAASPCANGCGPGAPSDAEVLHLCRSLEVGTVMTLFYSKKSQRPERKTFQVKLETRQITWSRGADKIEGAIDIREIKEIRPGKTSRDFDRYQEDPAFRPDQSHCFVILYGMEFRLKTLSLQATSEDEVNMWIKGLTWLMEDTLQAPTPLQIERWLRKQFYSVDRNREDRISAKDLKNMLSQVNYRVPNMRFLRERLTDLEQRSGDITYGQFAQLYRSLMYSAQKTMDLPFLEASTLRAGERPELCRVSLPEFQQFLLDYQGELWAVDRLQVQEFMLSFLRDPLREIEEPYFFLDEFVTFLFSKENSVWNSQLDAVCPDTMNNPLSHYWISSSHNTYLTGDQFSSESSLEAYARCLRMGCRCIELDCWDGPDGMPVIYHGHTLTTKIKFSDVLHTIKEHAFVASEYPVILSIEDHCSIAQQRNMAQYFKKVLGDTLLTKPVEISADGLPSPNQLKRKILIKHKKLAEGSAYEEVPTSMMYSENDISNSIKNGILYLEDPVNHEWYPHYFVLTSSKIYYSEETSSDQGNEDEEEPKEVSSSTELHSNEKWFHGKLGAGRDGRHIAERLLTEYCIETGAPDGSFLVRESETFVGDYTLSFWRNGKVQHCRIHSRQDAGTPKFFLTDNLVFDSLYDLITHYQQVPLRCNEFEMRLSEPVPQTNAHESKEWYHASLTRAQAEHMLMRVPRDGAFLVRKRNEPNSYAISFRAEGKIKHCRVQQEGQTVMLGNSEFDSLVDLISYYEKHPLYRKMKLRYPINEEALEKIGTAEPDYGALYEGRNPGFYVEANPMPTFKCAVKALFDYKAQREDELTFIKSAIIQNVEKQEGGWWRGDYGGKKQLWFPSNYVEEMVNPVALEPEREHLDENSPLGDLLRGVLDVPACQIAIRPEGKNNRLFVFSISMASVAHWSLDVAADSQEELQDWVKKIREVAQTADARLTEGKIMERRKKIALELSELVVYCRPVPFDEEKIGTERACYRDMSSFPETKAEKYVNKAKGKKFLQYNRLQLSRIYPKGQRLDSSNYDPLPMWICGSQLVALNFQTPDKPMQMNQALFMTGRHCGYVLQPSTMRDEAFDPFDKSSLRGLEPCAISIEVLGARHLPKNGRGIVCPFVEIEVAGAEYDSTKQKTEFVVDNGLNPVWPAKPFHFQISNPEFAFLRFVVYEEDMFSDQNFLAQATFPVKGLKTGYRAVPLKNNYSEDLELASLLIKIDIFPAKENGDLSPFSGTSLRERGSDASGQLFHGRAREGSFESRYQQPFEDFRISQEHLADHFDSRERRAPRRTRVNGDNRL
In words: co-IP; endogenous PLCγ1 immunoprecipitated with anti-PLCγ1 antibody and protein A sepharose from pre-cleared HuAR2T rKSHV.219 lysate, with or without induction of the lytic cycle; western blot.

A further test deals with T3, S-tagged PLCγ1 wt (UniProt P19174).
T3 sequence: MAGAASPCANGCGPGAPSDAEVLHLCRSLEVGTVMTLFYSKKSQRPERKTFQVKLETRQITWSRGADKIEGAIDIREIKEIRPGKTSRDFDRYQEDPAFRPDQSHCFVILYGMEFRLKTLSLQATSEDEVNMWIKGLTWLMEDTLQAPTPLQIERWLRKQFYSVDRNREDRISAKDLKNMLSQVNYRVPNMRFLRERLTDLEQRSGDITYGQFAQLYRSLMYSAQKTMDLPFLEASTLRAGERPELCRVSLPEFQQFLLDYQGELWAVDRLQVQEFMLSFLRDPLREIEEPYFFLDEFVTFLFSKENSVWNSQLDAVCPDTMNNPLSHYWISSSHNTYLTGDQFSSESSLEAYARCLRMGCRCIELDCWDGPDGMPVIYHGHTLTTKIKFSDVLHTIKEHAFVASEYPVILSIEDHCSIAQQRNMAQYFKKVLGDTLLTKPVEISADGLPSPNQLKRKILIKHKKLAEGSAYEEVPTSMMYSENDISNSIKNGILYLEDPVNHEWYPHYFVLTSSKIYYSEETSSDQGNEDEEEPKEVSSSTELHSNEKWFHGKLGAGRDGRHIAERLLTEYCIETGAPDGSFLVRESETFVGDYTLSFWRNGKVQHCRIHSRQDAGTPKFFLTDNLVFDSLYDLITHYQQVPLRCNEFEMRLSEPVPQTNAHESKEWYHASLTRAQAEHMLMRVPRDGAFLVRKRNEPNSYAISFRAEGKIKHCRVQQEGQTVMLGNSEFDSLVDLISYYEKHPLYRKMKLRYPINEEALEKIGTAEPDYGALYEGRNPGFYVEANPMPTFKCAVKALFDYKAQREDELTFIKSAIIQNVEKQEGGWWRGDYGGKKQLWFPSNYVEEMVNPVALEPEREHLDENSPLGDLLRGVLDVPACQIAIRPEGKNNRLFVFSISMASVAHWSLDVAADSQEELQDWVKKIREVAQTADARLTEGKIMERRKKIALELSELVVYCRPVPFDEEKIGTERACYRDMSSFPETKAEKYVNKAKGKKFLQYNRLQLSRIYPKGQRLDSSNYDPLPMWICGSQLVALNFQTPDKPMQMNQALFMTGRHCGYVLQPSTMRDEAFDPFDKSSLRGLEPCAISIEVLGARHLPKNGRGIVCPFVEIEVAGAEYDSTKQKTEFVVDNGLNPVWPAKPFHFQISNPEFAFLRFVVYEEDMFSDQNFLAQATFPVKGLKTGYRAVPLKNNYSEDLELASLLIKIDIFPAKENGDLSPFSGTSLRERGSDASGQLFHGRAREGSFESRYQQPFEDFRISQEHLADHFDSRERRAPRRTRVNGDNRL
In words: co-IP; HEK293T co-transfected; lysed in IP buffer (150 mM NaCl, 25 mM tris HCl pH 7.6, 1 mM EDTA, 1% glycerol, 0.2% NP-40); S-tagged construct captured on S protein agarose beads overnight at 4°C; western blot.

In another test the target is S-tagged PLCγ1 R586L (UniProt P19174). The description is as above.
For test [3], the target named is T1, GST-K15P cytoplasmic domain (aa 347-489) (Kaposi's sarcoma herpesvirus (KSHV, HHV-8)). In words: pull-down; GST-K15P cytoplasmic domain on glutathione beads incubated overnight at 4°C with pre-cleared lysate of HEK293T transfected with PLCγ2 constructs; western blot; only the target purified.

B1: PLCγ1, endogenous in HEK293T cells (enzyme, UniProt P19174 1-1290)
chain: MAGAASPCANGCGPGAPSDAEVLHLCRSLEVGTVMTLFYSKKSQRPERKTFQVKLETRQITWSRGADKIEGAIDIREIKEIRPGKTSRDFDRYQEDPAFRPDQSHCFVILYGMEFRLKTLSLQATSEDEVNMWIKGLTWLMEDTLQAPTPLQIERWLRKQFYSVDRNREDRISAKDLKNMLSQVNYRVPNMRFLRERLTDLEQRSGDITYGQFAQLYRSLMYSAQKTMDLPFLEASTLRAGERPELCRVSLPEFQQFLLDYQGELWAVDRLQVQEFMLSFLRDPLREIEEPYFFLDEFVTFLFSKENSVWNSQLDAVCPDTMNNPLSHYWISSSHNTYLTGDQFSSESSLEAYARCLRMGCRCIELDCWDGPDGMPVIYHGHTLTTKIKFSDVLHTIKEHAFVASEYPVILSIEDHCSIAQQRNMAQYFKKVLGDTLLTKPVEISADGLPSPNQLKRKILIKHKKLAEGSAYEEVPTSMMYSENDISNSIKNGILYLEDPVNHEWYPHYFVLTSSKIYYSEETSSDQGNEDEEEPKEVSSSTELHSNEKWFHGKLGAGRDGRHIAERLLTEYCIETGAPDGSFLVRESETFVGDYTLSFWRNGKVQHCRIHSRQDAGTPKFFLTDNLVFDSLYDLITHYQQVPLRCNEFEMRLSEPVPQTNAHESKEWYHASLTRAQAEHMLMRVPRDGAFLVRKRNEPNSYAISFRAEGKIKHCRVQQEGQTVMLGNSEFDSLVDLISYYEKHPLYRKMKLRYPINEEALEKIGTAEPDYGALYEGRNPGFYVEANPMPTFKCAVKALFDYKAQREDELTFIKSAIIQNVEKQEGGWWRGDYGGKKQLWFPSNYVEEMVNPVALEPEREHLDENSPLGDLLRGVLDVPACQIAIRPEGKNNRLFVFSISMASVAHWSLDVAADSQEELQDWVKKIREVAQTADARLTEGKIMERRKKIALELSELVVYCRPVPFDEEKIGTERACYRDMSSFPETKAEKYVNKAKGKKFLQYNRLQLSRIYPKGQRLDSSNYDPLPMWICGSQLVALNFQTPDKPMQMNQALFMTGRHCGYVLQPSTMRDEAFDPFDKSSLRGLEPCAISIEVLGARHLPKNGRGIVCPFVEIEVAGAEYDSTKQKTEFVVDNGLNPVWPAKPFHFQISNPEFAFLRFVVYEEDMFSDQNFLAQATFPVKGLKTGYRAVPLKNNYSEDLELASLLIKIDIFPAKENGDLSPFSGTSLRERGSDASGQLFHGRAREGSFESRYQQPFEDFRISQEHLADHFDSRERRAPRRTRVNGDNRL
Consider B1, for which the binding entry in test [1] was “binds”.

B2: KSHV K15 protein expressed from the viral genome in KSHV infected endothelial cells (protein, UniProt Q9QR69 27-489)
chain: VTTNSIDTMASLLVMCILFVSAINKYTQAISSNNPKWPSSWHLGIIACIVLKLWNLSTTNSVTYACLITTAILSLVTAFLTLIKHCTACKLQLEHGILFTSTFAVLMTNMLVHMSNTWQSSWIFFPISFTLSLPFLYAFATVKTGNIKLVSSVSFICAGLVMGYPVSCCKTHTCTATAAGLSLSSIYLGFTGIISTLHKSWAPPKRGILTFLLLQGGVLTTQTLTTELLAITSTTGNIKGHEILLLVCLIFLWCLYVWQSFNKASLVTGMLHLIAAWSHTGGCVQLVMLLPSGLTRGILTMIICISTLFSTLQGLLVFYLYKEKKVVAVNSYRQRRRRIYTRDQNLHHNDNHLGNNVISPPPLPPFFRQPVRLPSHVTDRGRGSQLLNEVELQEVNRDPPNVFGYASILVSGAEESREPSPQPDQSGMSILRVDGGSAFRIDTAQAATQPTDDLYEEVLFPRN
Take B2: in test [2], the binding result was “binds”.

B3: K15P wt (protein, UniProt Q9QR69 27-489)
chain: VTTNSIDTMASLLVMCILFVSAINKYTQAISSNNPKWPSSWHLGIIACIVLKLWNLSTTNSVTYACLITTAILSLVTAFLTLIKHCTACKLQLEHGILFTSTFAVLMTNMLVHMSNTWQSSWIFFPISFTLSLPFLYAFATVKTGNIKLVSSVSFICAGLVMGYPVSCCKTHTCTATAAGLSLSSIYLGFTGIISTLHKSWAPPKRGILTFLLLQGGVLTTQTLTTELLAITSTTGNIKGHEILLLVCLIFLWCLYVWQSFNKASLVTGMLHLIAAWSHTGGCVQLVMLLPSGLTRGILTMIICISTLFSTLQGLLVFYLYKEKKVVAVNSYRQRRRRIYTRDQNLHHNDNHLGNNVISPPPLPPFFRQPVRLPSHVTDRGRGSQLLNEVELQEVNRDPPNVFGYASILVSGAEESREPSPQPDQSGMSILRVDGGSAFRIDTAQAATQPTDDLYEEVLFPRN
Consider B3, for which the binding result with S-tagged PLCγ1 wt and in the test with S-tagged PLCγ1 R586L was “binds” throughout.

B4: full length PLCγ2 (enzyme, UniProt P16885 1-1265)
chain: MSTTVNVDSLAEYEKSQIKRALELGTVMTVFSFRKSTPERRTVQVIMETRQVAWSKTADKIEGFLDIMEIKEIRPGKNSKDFERAKAVRQKEDCCFTILYGTQFVLSTLSLAADSKEDAVNWLSGLKILHQEAMNASTPTIIESWLRKQIYSVDQTRRNSISLRELKTILPLINFKVSSAKFLKDKFVEIGAHKDELSFEQFHLFYKKLMFEQQKSILDEFKKDSSVFILGNTDRPDASAVYLHDFQRFLIHEQQEHWAQDLNKVRERMTKFIDDTMRETAEPFLFVDEFLTYLFSRENSIWDEKYDAVDMQDMNNPLSHYWISSSHNTYLTGDQLRSESSPEAYIRCLRMGCRCIELDCWDGPDGKPVIYHGWTRTTKIKFDDVVQAIKDHAFVTSSFPVILSIEEHCSVEQQRHMAKAFKEVFGDLLLTKPTEASADQLPSPSQLREKIIIKHKKLGPRGDVDVNMEDKKDEHKQQGELYMWDSIDQKWTRHYCAIADAKLSFSDDIEQTMEEEVPQDIPPTELHFGEKWFHKKVEKRTSAEKLLQEYCMETGGKDGTFLVRESETFPNDYTLSFWRSGRVQHCRIRSTMEGGTLKYYLTDNLTFSSIYALIQHYRETHLRCAEFELRLTDPVPNPNPHESKPWYYDSLSRGEAEDMLMRIPRDGAFLIRKREGSDSYAITFRARGKVKHCRINRDGRHFVLGTSAYFESLVELVSYYEKHSLYRKMRLRYPVTPELLERYNMERDINSLYDVSRMYVDPSEINPSMPQRTVKALYDYKAKRSDELSFCRGALIHNVSKEPGGWWKGDYGTRIQQYFPSNYVEDISTADFEELEKQIIEDNPLGSLCRGILDLNTYNVVKAPQGKNQKSFVFILEPKQQGDPPVEFATDRVEELFEWFQSIREITWKIDTKENNMKYWEKNQSIAIELSDLVVYCKPTSKTKDNLENPDFREIRSFVETKADSIIRQKPVDLLKYNQKGLTRVYPKGQRVDSSNYDPFRLWLCGSQMVALNFQTADKYMQMNHALFSLNGRTGYVLQPESMRTEKYDPMPPESQRKILMTLTVKVLGARHLPKLGRSIACPFVEVEICGAEYDNNKFKTTVVNDNGLSPIWAPTQEKVTFEIYDPNLAFLRFVVYEEDMFSDPNFLAHATYPIKAVKSGFRSVPLKNGYSEDIELASLLVFCEMRPVLESEEELYSSCRQLRRRQEELNNQLFLYDTHQNLRNANRDALVKEFSVNENQLQLYQEKCNKRLREKRVSNSKFYS
Turning to B4, the binding result in test [3] was “no binding”.

These data come from paper PMC4546648.
